# Test results from patent US20250333445A1 (ONCOPEPTIDES INNOVATION 1, published 2025).
# Residue numbers refer to the chain shown, from its start. Numbers in names are those of the source.
# T1: BCMA on MM.1S multiple myeloma cells (human, UniProt Q02223 1-184)
# T1 sequence (looked up): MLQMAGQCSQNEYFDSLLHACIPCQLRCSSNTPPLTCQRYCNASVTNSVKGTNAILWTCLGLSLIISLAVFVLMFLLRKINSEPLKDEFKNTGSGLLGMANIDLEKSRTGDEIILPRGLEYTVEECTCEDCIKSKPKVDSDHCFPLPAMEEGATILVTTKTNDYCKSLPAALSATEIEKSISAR
# B1: Anti-BCMA (1-E6)-H09-A10-His6 (designed binder)
# chain: VDNKFNKENQFADEEIAALPNLNFYQKWAFIRKLMDDPSQSANLLAEAKKLNDAQAPKGGGSGGGGSGGGGSGVDNKFNKEFWIAESEIESLPNLNIYQKWAFKYSLADDPSQSANLLAEAKKLNDAQAPKGGGSGGGGSGGGGSGVDNKFNKEVQMAQFEIRKLPNLNHHQSFAFIKSLMDDPSQSANLLAEAKKLNDAQAPKYYHHHHHH
# notes: also called anti-hBCMA-H09-A10-His6
# B2: A10-YY-His6 (wild-type A10 with C-terminal His6 tag) (designed binder)
# chain: VDNKFNKEVQMAQFEIRKLPNLNHHQSFAFIKSLMDDPSQSANLLAEAKKLNDAQAPKYYHHHHHH
# notes: also called A10-His6; original A10 polypeptide
# B3: A10 alanine variant at position 24 (H24A), polypeptide-YY-His6 (designed binder)
# chain: B2 chain with H24A
# B4: A10 alanine variant at position 32 (K32A), polypeptide-YY-His6 (designed binder)
# chain: B2 chain with K32A
# B5: A10 alanine variant at position 11 (M11A), polypeptide-YY-His6 (designed binder)
# chain: B2 chain with M11A
# B6: A10 H25A, polypeptide-YY-His6 (designed binder)
# chain: B2 chain with H25A
# B7: A10 alanine variant at position 28 (F28A), polypeptide-YY-His6 (designed binder)
# chain: B2 chain with F28A
# B8: A10 alanine variant at position 17 (R17A), polypeptide-YY-His6 (designed binder)
# chain: B2 chain with R17A
# B9: A10 alanine variant at position 13 (Q13A), polypeptide-YY-His6 (designed binder)
# chain: B2 chain with Q13A
# B10: A10 M35A, polypeptide-YY-His6 (designed binder)
# chain: B2 chain with M35A
# B11: A10 alanine variant at position 18 (K18A), polypeptide-YY-His6 (designed binder)
# chain: B2 chain with K18A
# B12: A10 alanine variant at position 27 (S27A), polypeptide-YY-His6 (designed binder)
# chain: B2 chain with S27A
# B13: A10 alanine variant at position 14 (F14A), polypeptide-YY-His6 (designed binder)
# chain: B2 chain with F14A
# B14: A10 alanine variant at position 31 (I31A), polypeptide-YY-His6 (designed binder)
# chain: B2 chain with I31A
# notes: also called 131A (so in the source)
# B15: A10 alanine variant at position 9 (V9A), polypeptide-YY-His6 (designed binder)
# chain: B2 chain with V9A
# B16: A10 alanine variant at position 10 (Q10A), polypeptide-YY-His6 (designed binder)
# chain: B2 chain with Q10A
# B17: 1-E6-(GGGSG)3-A10*-YY-His6 with A10* = SEQ ID 44 (designed binder)
# chain: VDNKFNKENQFADEEIAALPNLNFYQKWAFIRKLMDDPSQSANLLAEAKKLNDAQAPKGGGSGGGGSGGGGSGVDNKFNKEFQSAQVEIRHLPNLNHHQKFAFIQSLIDDPSQSANLLAEAKKLNDAQAPKYYHHHHHH
# B18: 1-E6-(GGGSG)3-A10*-YY-His6 with A10* = SEQ ID 59 (designed binder)
# chain: B17 chain with F82L, S84F, V87R, H91A, K100I, Q105R, I108L
# B19: 1-E6-(GGGSG)3-A10*-YY-His6 with A10* = SEQ ID 50 (designed binder)
# chain: B17 chain with S84I, V87R, H91D, K100I
# B20: 1-E6-(GGGSG)3-A10*-YY-His6 with A10* = SEQ ID 57 (designed binder)
# chain: B17 chain with S84Q, Q86A, V87R, H91V, K100I, Q105K, I108L
# B21: 1-E6-(GGGSG)3-A10*-YY-His6 with A10* = SEQ ID 63 (designed binder)
# chain: B17 chain with S84A, V87Q, H91R, K100A, Q105R, I108L
# B22: 1-E6-(GGGSG)3-A10*-YY-His6 with A10* = SEQ ID 53 (designed binder)
# chain: B17 chain with F82L, S84Y, H91K, K100R, Q105K, I108L
# B23: 1-E6-(GGGSG)3-A10*-YY-His6 with A10* = SEQ ID 61 (designed binder)
# chain: B17 chain with F82L, S84V, V87H, H91F, Q105N, S106K
# B24: 1-E6-(GGGSG)3-A10*-YY-His6 with A10* = SEQ ID 52 (designed binder)
# chain: B17 chain with F82Q, S84W, V87R, H91S, K100V, Q105N, I108L
# B25: 1-E6-(GGGSG)3-A10*-YY-His6 with A10* = SEQ ID 47 (designed binder)
# chain: B17 chain with F82Y, S84Q, V87Q, H91V, S106K
# B26: 1-E6-(GGGSG)3-A10*-YY-His6 with A10* = SEQ ID 58 (designed binder)
# chain: B17 chain with F82L, S84A, H91T, K100V, S106K
# B27: 1-E6-(GGGSG)3-A10*-YY-His6 with A10* = SEQ ID 46 (designed binder)
# chain: B17 chain with F82Y, S84Y, V87K, H91T, K100R, Q105K, I108L
# B28: 1-E6-(GGGSG)3-A10*-YY-His6 with A10* = SEQ ID 62 (designed binder)
# chain: B17 chain with F82V, S84I, V87L, H91A, K100I, Q105K, S106K, I108H
# B29: 1-E6-(GGGSG)3-A10*-YY-His6 with A10* = SEQ ID 54 (designed binder)
# chain: B17 chain with F82Y, S84E, V87L, H91N, K100I, Q105N, S106K
# B30: H_aBCMA-1-E6_15 aa_aCD16-A10(2b-G11)_His6c_OH (designed binder)
# chain: B17 chain with F82V, S84I, V87T, H91S, K100V
# B31: H_aBCMA-1-E6_15 aa_aCD16-A10(34a-D10)_His6c_OH (designed binder)
# chain: VDNKFNKENQFADEEIAALPNLNFYQKWAFIRKLMDDPSQSANLLAEAKKLNDAQAPKGGGSGGGGSGGGGSGVDNKFNKEQQEAQLEIRRLPNLNHHQVFAFIKSLLDDPSQSANLLAEAKKLNDAQAPK
# B32: H_aBCMA-1-E6_15 aa_aCD16-A10(34a-A11)_His6c_OH (designed binder)
# chain: B31 chain with E84I, L87Y, R91K, V100T
# Molecular target: T1, BCMA on MM.1S multiple myeloma cells
# Test: cell-based or functional assay
Binder,"EC50, 8-hour flow cytometry-based killing assay, NK cells and MM.1s (E:T 5:1) [nM]","EC90, 8-hour flow cytometry-based killing assay, NK cells and MM.1s (E:T 5:1) [nM]"
B1,0.4,2

# Molecular target: T2, hCD16a F158 (Cat. no. CDA-H5220, Acro Biosystems) (human, UniProt P08637 17-208)
# T2 construct: also called human CD16a F158; hCD16a F158 allotype
# Test: SPR (Biacore T200), 200 nM analyte over immobilised hCD16a F158
row,Binder,binding result
1,B2,binds
2,B3,binds
3,B4,binds
4,B5,binds
5,B6,binds
6,B7,binds
7,B8,binds
8,B9,binds
9,B10,binds
10,B11,binds
11,B12,binds
12,B13,binds
13,B14,binds
14,B15,binds
15,B16,binds

# Molecular target: T2, hCD16a F158 (Cat. no. CDA-H5220, Acro …)
# Test: SPR, 1-E6-(GGGSG)3-A10*-YY-His6 fusion over immobilised receptor [f]
Binder,Kd [nM],koff [s⁻¹],kon [M⁻¹ s⁻¹]
B17,438,4.5,1e+07
B18,192,0.0057,29000
B19,614,4.9,8e+06
B20,472,11,2.3e+07
B21,248,7.5,3e+07
B22,39,0.0049,130000
B23,213,0.068,320000
B24,186,0.037,200000
B25,2840,0.026,9200
B26,266,0.03,110000
B27,224,6.2,2.8e+07
B28,234,0.6,2.6e+06
B29,486,0.14,290000
B30,293,0.014,48000
B31,87,0.005,58000
B32,5,0.00026,58000

# Molecular target: T3, hCD16a V158 (Cat. no. CD8-H52H4, Acro Biosystems) (human, UniProt P08637 17-208)
# T3 construct: also called human CD16a V158; hCD16a V158 allotype
# Test: as above
row,Binder,Kd [nM]
1,B17,373
2,B18,181
3,B19,515
4,B20,401
5,B21,219
6,B22,41
7,B23,187
8,B24,163
9,B25,2480
10,B26,241
11,B27,197
12,B28,204
13,B29,418
14,B30,273
15,B31,87
16,B32,4

# Molecular target: T4, CD16b NA1 (human, UniProt O75015)
# T4 construct: also called CD16b (NA1 form)
# Test: SPR, 1-E6-(GGGSG)3-A10*-YY-His6 fusion; CD16b set-up not described [f]
row,Binder,Kd [nM]
1,B17,195
2,B18,52
3,B19,177
4,B20,251
5,B21,85
6,B22,21
7,B23,133
8,B24,54
9,B25,588
10,B26,133
11,B27,101
12,B28,126
13,B29,240
14,B30,138
15,B31,38
16,B32,27

# Molecular target: T5, CD16b NA2 (human, UniProt O75015)
# T5 construct: also called CD16b (NA2 form)
# Test: as above
row,Binder,Kd [nM]
1,B17,593
2,B18,257
3,B19,618
4,B20,554
5,B21,289
6,B22,77
7,B23,328
8,B24,278
9,B25,2140
10,B26,373
11,B27,397
12,B28,304
13,B29,663
14,B30,450
15,B31,151
16,B32,16

# Molecular target: T2, hCD16a F158 (Cat. no. CDA-H5220, Acro …)
# Test: SPR (Biacore 8K), serial dilutions over immobilised hCD16a F158, 1:1 Langmuir model
Binder,Kd [nM],koff [s⁻¹],kon [M⁻¹ s⁻¹]
B22,39,0.0049,130000
B31,87,0.005,58000
B32,5.2,0.00035,66000

# Molecular target: T2, hCD16a F158 (Cat. no. CDA-H5220, Acro …)
# Test: SPR (Biacore T200), 200 nM hCD16a over the engager held on immobilised hBCMA-rFc
row,Binder,binding result
1,B1,binds

# Molecular target: T3, hCD16a V158 (Cat. no. CD8-H52H4, Acro …)
# Test: as above
row,Binder,binding result
1,B1,binds
